# Whole data set: some 33,000 sequences, median “E-score (-0.5 to 0.5)” near -0.054, cut for the highest 2% near 0.35. The list shows a part of the results.
# Molecular target: T1, Stb5 (UniProt P38699)
# T1 sequence: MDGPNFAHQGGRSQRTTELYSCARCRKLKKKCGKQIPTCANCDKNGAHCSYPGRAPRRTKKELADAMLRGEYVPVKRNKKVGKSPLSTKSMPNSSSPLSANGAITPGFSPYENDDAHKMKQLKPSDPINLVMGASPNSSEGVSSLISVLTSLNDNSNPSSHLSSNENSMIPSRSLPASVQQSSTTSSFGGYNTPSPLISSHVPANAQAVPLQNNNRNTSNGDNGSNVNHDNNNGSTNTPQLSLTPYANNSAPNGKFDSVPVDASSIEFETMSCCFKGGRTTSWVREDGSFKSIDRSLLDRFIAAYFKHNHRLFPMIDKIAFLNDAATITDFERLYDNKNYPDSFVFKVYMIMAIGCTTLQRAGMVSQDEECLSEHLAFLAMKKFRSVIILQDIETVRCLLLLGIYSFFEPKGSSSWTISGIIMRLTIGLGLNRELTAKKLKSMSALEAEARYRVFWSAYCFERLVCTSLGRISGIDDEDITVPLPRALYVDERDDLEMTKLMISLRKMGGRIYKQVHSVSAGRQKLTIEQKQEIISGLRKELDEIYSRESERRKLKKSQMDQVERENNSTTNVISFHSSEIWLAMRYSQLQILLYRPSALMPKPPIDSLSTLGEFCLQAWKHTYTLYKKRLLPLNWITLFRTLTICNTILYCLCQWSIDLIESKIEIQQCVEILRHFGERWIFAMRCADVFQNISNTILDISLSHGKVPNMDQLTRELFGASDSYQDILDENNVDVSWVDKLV
# Assay: PBM E-score (8-mer binding enrichment) (E-score (-0.5 to 0.5)); higher = stronger / more preferred TF binding; most listed sequences are background and not binding sites
# Conditions: protein concentration: 200 nM; construct: GST-full length
# Outline: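 Universal all-10-mer Agilent arrays, double-stranded by primer extension on fresh or once-stripped slides, were probed with about 100-200 nM GST-tagged yeast transcription factors made by PURExpress. Fluorescent anti-GST detected bound protein, and masliner normalised the scans. E-scores from the Universal PBM Analysis Suite were given to each ungapped eight-base word pooled with its reverse complement.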
row,Sequence,PBM E-score
1,AATGCAAT,-0.0808
2,GGTTGTTA,0.0958
3,CGAACCAG,-0.145
4,TCTACCAA,-0.169
5,ACCCTGGA,-0.243
6,AGGGCAGA,-0.311
7,ATCGAGCG,0.0654
8,ACAGACCT,-0.14
9,GATCTACA,-0.147
10,AAAATTCA,-0.0403
11,CAAAGGTC,-0.0594
12,AGTACCCG,0.0305
13,ACGGTTGA,-0.165
14,AATCGGAT,0.244
15,CCAGTCGA,-0.144
16,AGTCTTCG,-0.185
17,GGGAACGA,0.045
18,ACTGTGGG,-0.282
19,ATATAATG,-0.211
20,CGTAGATA,0.07
21,CCGGGCAA,0.178
22,AGATTGCA,-0.267
23,GCGACACA,0.0273
24,ATCGTAGG,-0.23
25,CACCAGTC,-0.122

row,Sequence,PBM E-score
1,AATGTGCC,0.145
2,GGGAGACA,0.0746
3,CCGCGAGC,0.281
4,GCGTTACC,0.0765
5,GTGTCGCA,0.117
6,GAGTAGCC,-0.178
7,TCCTTTAA,0.163
8,CCCGCGTC,0.254
9,CGAGTGAC,-0.179
10,AACGGTAT,0.265
11,CGCGGATC,0.15
12,CGCACAGC,0.189
13,GCCCCTCC,-0.1
14,AATGGGTA,-0.153
15,AGGACTTA,0.274
16,CCTGCATA,-0.02
17,CCCAGTAC,-0.268
18,AGTTCCCC,0.16
19,AAAGCATC,-0.111
20,TACTCGAA,-0.128
21,AAGTAAGG,0.0143
22,GTGATCAC,0.235
23,ATGGGGAA,-0.0244
24,AATCGACC,0.093
25,AAGGGGGC,-0.164

row,Sequence,PBM E-score
1,AGTGAAGC,-0.024
2,GGTAAACA,0.0405
3,AAATCTGG,-0.00908
4,AGCTGAAC,-0.245
5,GCTTCGAA,-0.0877
6,ATATGTGG,-0.101
7,CTGCGCGA,0.051
8,AGACAACT,-0.137
9,GCCTTTAA,0.0295
10,AATTCGGC,-0.0188
11,CGTCATAC,0.155
12,GAGAGAGA,-0.0152
13,CGGGTTAC,0.0485
14,ACTTTGCT,-0.119
15,GCGGATTA,0.114
16,GCTGCAGC,0.228
17,TAAGGTAA,-0.0431
18,ATCATTCA,-0.198
19,CGATTAGC,-0.0718
20,AACGGATC,0.16
21,CGCTAGAG,0.0369
22,CTTCAGGC,-0.0204
23,GTGTAAGA,-0.104
24,ACCCCTTA,0.0174
25,GGAACGAA,-0.0229

row,Sequence,PBM E-score
1,CTAGAGAG,-0.146
2,CTACCGTC,0.177
3,GAGGTGTA,-0.0897
4,CAAGGGTG,-0.151
5,ACCGAGCC,0.0685
6,CCAATCGG,0.212
7,TACTAGGA,-0.0753
8,AGGACACT,-0.138
9,GACGAGAA,-0.22
10,GGCGCACA,0.034
11,AGAAAAGC,-0.0667
12,CGTAAAGC,0.0857
13,TAATATCA,0.172
14,ATCTTACA,-0.033
15,TTGGGAAA,-0.293
16,CTCATCCA,-0.265
17,CCCGGTAG,0.211
18,AGATGCGC,0.0212
19,ACAGTAGC,-0.159
20,GATTGCAA,-0.214
21,ACTATAAC,0.135
22,CGAACTAC,0.00666
23,AGAGGTCC,-0.0788
24,CTGAGAGC,-0.047
25,ACGTAGAC,-0.251

row,Sequence,PBM E-score
1,GCCGACGA,0.308
2,CGATTCGC,0.0218
3,CCGCATAA,0.251
4,CCAAGAAG,-0.144
5,CTTTCGTC,-0.0669
6,AAATCTTA,-0.119
7,CTGACATA,-0.0884
8,ACTATTCG,-0.238
9,CGGCCGTC,0.11
10,CATCCGAA,0.168
11,AGGCGGCG,0.335
12,CACTGCCC,-0.0546
13,AAAGCGGA,0.352
14,CATGGAGC,-0.0701
15,GCCGTATA,0.173
16,GCACCTCC,-0.0633
17,CTTGGAGC,-0.224
18,CGTTAAAA,0.19
19,CGGGTAAG,-0.0392
20,ACTATCCC,0.0306
21,GGAACACA,-0.0998
22,ACCCCCGG,0.336
23,AAGAGCGC,0.141
24,AAAGGTCA,-0.202
25,ATGTTGCA,-0.271

row,Sequence,PBM E-score
1,GTGCCACA,-0.302
2,TACCATAA,-0.0349
3,AGCGACGA,-0.0697
4,GGGACGAC,-0.115
5,TACAATAA,-0.11
6,GCCCAATA,-0.139
7,ATTGTCAC,0.0341
8,AGAGACCG,0.278
9,CCTAACCA,-0.181
10,TCACCAGA,0.0164
11,GGGTAGCA,-0.072
12,CCCCGCTA,0.399
13,GGTCGTTA,0.0818
14,ACACCACC,0.0187
15,GGCTTCTA,-0.04
16,ATTCTGTG,-0.0797
17,GCCATTCC,-0.0807
18,TAACATAA,0.0517
19,GACCGCTA,0.359
20,GAATGCTA,-0.0445
21,CCTTCATC,-0.0101
22,GGTATAAA,0.305
23,AGGGAAAT,-0.0743
24,CGGCAACC,0.066
25,CAGTCTAC,-0.135

row,Sequence,PBM E-score
1,ACTACTTC,0.0827
2,TGCTCTAA,0.011
3,CGCTATGC,0.143
4,GATATATA,0.225
5,AGGCGCAG,-0.219
6,CAAAACCG,0.0999
7,GATCGAGA,-0.15
8,AAGCGAGG,0.0396
9,ATGCAGCC,-0.0789
10,AGACAGAG,-0.213
11,CGGAATGA,0.129
12,CGACACAC,0.149
13,ATTGCGCA,-0.0464
14,ATTGGTTC,-0.144
15,ATACGGTC,0.104
16,GGACTCGA,-0.0833
17,CGAAGCTC,-0.0575
18,TACCACGA,-0.267
19,CTAACCGA,-0.0425
20,CTCTCTGA,-0.0662
21,CATTGTTA,-0.0971
22,CGCATGGA,-0.0138
